The values that follow come from paper PMC4336329 (PLoS ONE, 2015).

The whole screen tested about 310,000 compounds, of which about 14,000 (4.5%) showed an effect of 50% or more. Effects have a minus sign here. The list shows a part of the results.
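Also: peak tail current of the secondary pulse compared with the same well before compound.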

Sequence of human ether-à-go-go-related gene (hERG) potassium channel (Q12809 whole entry, looked up): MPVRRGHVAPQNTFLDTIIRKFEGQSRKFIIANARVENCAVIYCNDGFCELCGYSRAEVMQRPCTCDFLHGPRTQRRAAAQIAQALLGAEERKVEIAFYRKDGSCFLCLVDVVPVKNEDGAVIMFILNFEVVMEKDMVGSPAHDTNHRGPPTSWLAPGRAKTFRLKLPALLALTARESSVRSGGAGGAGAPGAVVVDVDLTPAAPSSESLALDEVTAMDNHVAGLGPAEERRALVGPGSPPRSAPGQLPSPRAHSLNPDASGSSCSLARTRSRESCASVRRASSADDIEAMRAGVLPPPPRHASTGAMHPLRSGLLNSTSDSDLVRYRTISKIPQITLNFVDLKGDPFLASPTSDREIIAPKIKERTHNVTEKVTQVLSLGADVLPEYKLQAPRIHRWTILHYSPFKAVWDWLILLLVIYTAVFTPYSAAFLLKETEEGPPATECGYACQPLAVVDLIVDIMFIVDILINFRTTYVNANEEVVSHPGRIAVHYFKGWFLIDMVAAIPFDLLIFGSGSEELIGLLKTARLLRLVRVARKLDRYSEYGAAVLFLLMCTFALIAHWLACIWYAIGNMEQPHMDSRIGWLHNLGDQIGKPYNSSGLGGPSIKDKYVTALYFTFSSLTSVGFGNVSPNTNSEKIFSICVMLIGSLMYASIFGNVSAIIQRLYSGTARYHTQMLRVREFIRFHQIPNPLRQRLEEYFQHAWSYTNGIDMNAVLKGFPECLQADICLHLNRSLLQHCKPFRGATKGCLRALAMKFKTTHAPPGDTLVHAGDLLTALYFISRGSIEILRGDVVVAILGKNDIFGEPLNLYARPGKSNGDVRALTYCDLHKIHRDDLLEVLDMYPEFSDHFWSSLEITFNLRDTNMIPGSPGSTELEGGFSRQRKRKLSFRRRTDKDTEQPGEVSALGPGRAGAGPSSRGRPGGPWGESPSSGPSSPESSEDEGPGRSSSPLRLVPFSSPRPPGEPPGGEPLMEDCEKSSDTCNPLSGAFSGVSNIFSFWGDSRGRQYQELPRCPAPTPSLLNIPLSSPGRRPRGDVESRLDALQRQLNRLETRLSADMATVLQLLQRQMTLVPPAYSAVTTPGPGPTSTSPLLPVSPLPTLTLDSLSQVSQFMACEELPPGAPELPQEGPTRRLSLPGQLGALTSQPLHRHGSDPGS

This assay concerns the target human ether-à-go-go-related gene (hERG) potassium channel (human, UniProt Q12809). Description: primary screen, population patch clamp on CHO cells stably expressing hERG.
As for `COc1ccc(NC(=O)c2csc(Cc3ccc(Cl)cc3)n2)cc1`, the “hERG current change (%, negative = inhibition) at 10uM” value is 19.9%.

For the molecule `CCC1CCCCN1C(=O)CSc1nc2c(c(=O)n(C)c(=O)n2C)n1C` (stereo not shown), the “hERG current change (%, negative = inhibition) at 10uM” value was -15.4%.

With `CN(c1ccc(C(=O)NCCSC(C)(C)C)cc1)S(=O)(=O)c1ccccc1`, the “hERG current change (%, negative = inhibition) at 10uM” value is reported as -25.2%.

As for `CCOc1ccc(NC(=O)CN2C(=O)S/C(=C/c3cccn3C)C2=O)cc1`, the “hERG current change (%, negative = inhibition) at 10uM” value is 13.6%.

As to `Cc1ccc(-n2nnnc2SCC(=O)c2c(N)n(C3CC3)c(=O)[nH]c2=O)cc1`, the “hERG current change (%, negative = inhibition) at 10uM” value turned out to be 10.8%.

`CCN(CC)S(=O)(=O)c1ccc(C(=O)N2CCN(C(=O)c3ccco3)CC2)cc1`: the “hERG current change (%, negative = inhibition) at 10uM” value is listed as -20.8%.

Regarding `COc1cc(C2C(C(=O)c3ccc(C)o3)=C(O)C(=O)N2CCc2ccccc2)ccc1O` (stereo not shown), the “hERG current change (%, negative = inhibition) at 10uM” value was -1.97%.

As for `CCNC(=O)/C(=C/c1cccc([N+](=O)[O-])c1)NC(=O)c1ccc(C)cc1`, the “hERG current change (%, negative = inhibition) at 10uM” value is recorded as -58.1%.

With `Cc1ccc(S(=O)(=O)CCC(=O)OCC(=O)N2CCc3ccccc32)cc1`, the “hERG current change (%, negative = inhibition) at 10uM” value is 1.19%.

For `CCn1c(SCC(=O)N/N=C/c2cc(OC)c(OC)c(OC)c2)nc2ccccc21`, the “hERG current change (%, negative = inhibition) at 10uM” value was -7.72%.

`Cc1ccnc(NC(=O)C2CC(=O)N(Cc3ccccc3)C2)c1` (stereo not shown): the “hERG current change (%, negative = inhibition) at 10uM” value amounted to 4.61%.

`CCOC(=O)c1cn(-c2c(C)n(C)n(-c3ccccc3)c2=O)c2c(F)c(F)c(F)cc2c1=O`: the “hERG current change (%, negative = inhibition) at 10uM” value is listed as -2.68%.

Turning to `CCOc1ccccc1CN1CCN(C/C=C/c2ccc(OC)cc2)CC1CCO` (stereo not shown), the “hERG current change (%, negative = inhibition) at 10uM” value is on record as -65%.

Turning to `Fc1cccc(NCCc2c[nH]c3ccccc23)n1`, the “hERG current change (%, negative = inhibition) at 10uM” value is on record as 11.3%.

Turning to `CCCn1c(Oc2ccccc2)nc2c1c(=O)n(C)c(=O)n2C`, the “hERG current change (%, negative = inhibition) at 10uM” value came out at 1.01%.

For the molecule `COc1cccc(NC(=O)CN(C)C(=O)Cc2n[nH]c(=O)c3ccccc23)c1`, the “hERG current change (%, negative = inhibition) at 10uM” value came to 7.63%.

Consider `O=C1c2ccccc2C(O)(Cc2ccccc2)N1C1CCCCC1` (stereo not shown), for which the “hERG current change (%, negative = inhibition) at 10uM” value is 1.8%.

As for `COc1ccccc1NC(=O)NC1(C(=O)N2CCOCC2)CCCCC1`, the “hERG current change (%, negative = inhibition) at 10uM” value is 16.9%.

On to `CCOC(=O)c1ccccc1NCN1C(=O)CSC1=O`, for which the “hERG current change (%, negative = inhibition) at 10uM” value was 17.3%.

For `CCCCN(C)CCCNC(=O)Cn1c(=O)sc2ccccc21`, the “hERG current change (%, negative = inhibition) at 10uM” value was -11.5%.

Regarding `COc1cc2c3nnc(-c4ccc(F)cc4)c-3cn(Cc3cccc(F)c3)c2cc1OC`, the “hERG current change (%, negative = inhibition) at 10uM” value was found to be 29.7%.

As for `Cc1ccc(S(=O)(=O)CCc2nnc(NC(=O)COc3cccc(C)c3)s2)cc1`, the “hERG current change (%, negative = inhibition) at 10uM” value was 7.2%.

Turning to `CCOC(=O)c1c(NC(=O)COC(=O)CNC(=O)c2ccco2)sc(C(C)=O)c1C`, the “hERG current change (%, negative = inhibition) at 10uM” value was -7.3%.

As for `CCC(C)NS(=O)(=O)c1ccc(OCC(=O)NCC2CCCO2)cc1` (stereo not shown), the “hERG current change (%, negative = inhibition) at 10uM” value is -9.1%.

Regarding `CCCn1c(SCC(=O)Nc2ccc(Cl)cn2)nnc1C1CC1`, the “hERG current change (%, negative = inhibition) at 10uM” value was -5.64%.

On to `O=S(=O)(NCCCc1ccccc1)c1ccc(Cl)cc1`, for which the “hERG current change (%, negative = inhibition) at 10uM” value is given as -34.4%.

Consider `CCCN1C(=O)c2cccc3c(N4CCCCC4)ccc(c23)C1=O`, for which the “hERG current change (%, negative = inhibition) at 10uM” value is 15.3%.

`CCN1CCN(c2nc(Nc3cccc(F)c3)nc(N)c2[N+](=O)[O-])CC1`: the “hERG current change (%, negative = inhibition) at 10uM” value was -62.6%.

Consider `O=c1oc(/C=C/c2ccccc2)nc2sc3c(c12)CCC3`, for which the “hERG current change (%, negative = inhibition) at 10uM” value is recorded as 6.49%.

On to `COC(=O)C1=CN(Cc2ccc(OC)c(OC)c2)C=C(C(=O)OC)C1c1cccc(O)c1`, for which the “hERG current change (%, negative = inhibition) at 10uM” value is 7.24%.

As for `COc1ccc(N2C(=O)CC(N3CCCC4CCCCC43)C2=O)cc1` (stereo not shown), the “hERG current change (%, negative = inhibition) at 10uM” value turned out to be 1.28%.

Regarding `O=C(COc1ccccc1)NNC(=O)c1cccs1`, the “hERG current change (%, negative = inhibition) at 10uM” value is given as 21.3%.

As to `O=C(NCc1ccccn1)Nc1cccc(Cl)c1`, the “hERG current change (%, negative = inhibition) at 10uM” value is -10.6%.

As to `CCC(C)NC(=O)c1ccc(CNS(=O)(=O)c2ccc3c(c2)C(C)(C)C(=O)N3C)cc1` (stereo not shown), the “hERG current change (%, negative = inhibition) at 10uM” value turned out to be 13.1%.

Take `O=C(CSc1nnnn1C1CC1)N1CCN(Cc2ccccc2F)CC1`: the “hERG current change (%, negative = inhibition) at 10uM” value is 3.94%.

With `CN(C(=O)CN1C(=O)/C(=C/c2ccc(F)cc2)SC1=S)C1CCS(=O)(=O)C1` (stereo not shown), the “hERG current change (%, negative = inhibition) at 10uM” value was -5.92%.

Regarding `COc1ccc(N2CCN(S(=O)(=O)c3ccc4c(c3)NC(=O)CS4)CC2)cc1`, the “hERG current change (%, negative = inhibition) at 10uM” value came out at 16.8%.

Turning to `CCOC(CNC(=O)C(=O)Nc1cc2c3c(c1)CC(=O)N3CCC2)OCC`, the “hERG current change (%, negative = inhibition) at 10uM” value is 5.22%.

On to `COc1ccc(OC)c(NC(=O)CSc2ccccc2)c1`, for which the “hERG current change (%, negative = inhibition) at 10uM” value is on record as -4.87%.

For the molecule `COc1ccc(CCN2C(=O)CC(Sc3ncccc3C(=O)O)C2=O)cc1OC` (stereo not shown), the “hERG current change (%, negative = inhibition) at 10uM” value was found to be 10.2%.

Regarding `N#Cc1nc(COc2ccc(Cl)cc2)oc1NCc1ccc2c(c1)OCO2`, the “hERG current change (%, negative = inhibition) at 10uM” value is 10.8%.

Regarding `O=C(Nc1nc2ccccc2[nH]1)C1CCCO1` (stereo not shown), the “hERG current change (%, negative = inhibition) at 10uM” value was 6.66%.

`CCOc1ccc(NCc2cccn2-c2nnc(N3CCC(C(=O)NCCCN4CCCCC4C)CC3)s2)cc1` (stereo not shown): the “hERG current change (%, negative = inhibition) at 10uM” value is -53.8%.
